Assay results from PubChem BioAssay (Tox21).
Values joined by “and” are separate entries in the source; they are usually repeats but may differ in a detail not shown here. Identical values can stand only once. The shares of active, inactive and inconclusive entries below differ from those in the screen. For some of these results: Potencies of inconclusive entries are doubtful fits and often do not repeat. Active and inactive are the calls of the source. Unless noted, calls follow the shape of the dose curve; as a rule, active = well fitted curve in the direction sought with a large enough effect in the repeat runs; inconclusive = weak or mixed curves; inactive = no such curve, though single readings can be large; an effect the other way counts as inactive or inconclusive.

Experiments:
[1] = qHTS RealTime-Glo MT Cell Viability Assay in HepG2 cells - 16 hour (AID 1224885); conditions: RealTime-Glo luminescence; series mostly up to 76.8 µM; also: nearly all actives have a fitted effect of over 50% in size; also: potency is read from the fitted curve at half-maximal effect
How it was run: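 qHTS, HepG2, 600 cells/well, RealTime-Glo (NanoLuc + prosubstrate) added with cells; 5 h preincubation; DMSO compound addition; 37 C; luminescence at 0/8/16/24/32/40 h.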

[2] = qHTS RealTime-Glo MT Cell Viability Assay in HEK293 cells - 24 hour (AID 1224886); conditions: RealTime-Glo luminescence; series mostly up to 76.8 µM; also: potency is read from the fitted curve at half-maximal effect; nearly all actives have a fitted effect of over 50% in size
How it was run: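 Assay medium contained NanoLuc luciferase plus cell-permeant prosubstrate, added with HEK293 cells at 600 cells/well. After 5 h at 37 C/5% CO2 compounds were added; plates stayed at 37 C for 40 h with serial luminescence reads.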

[3] = qHTS RealTime-Glo MT Cell Viability Assay in HEK293 cells - 8 hour (AID 1224887); conditions: RealTime-Glo luminescence; series mostly up to 76.8 µM; also: nearly all actives have a fitted effect of over 50% in size; also: potency is read from the fitted curve at half-maximal effect
How it was run: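 HEK293 + NanoLuc + prosubstrate, 600 cells/well; 5 h, 37 C/5% CO2; compound 23 nL in DMSO by pintool; 37 C; luminescence read at 0, 8, 16, 24, 32 and 40 h time points.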

[4] = target: Androgen receptor (Homo sapiens) (UniProt P10275); assay: qHTS assay to identify small molecule antagonists of the androgen receptor (AR) signaling pathway using the MDA cell line in the presence of 0.5 nM R1881 (AID 1259243); conditions: MDA-kb2 MMTV-luciferase, R1881 0.5 nM, 16 h; series mostly up to 92.4 µM; also: potency is read from the fitted curve at half-maximal effect; nearly all actives have a fitted effect of over 50% in size
How it was run: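 With R1881 held at 0.5 nM (final), compound effects on MMTV-luciferase expression in MDA-kb2 cells were scored by luminescence after a 16 hr, 37C incubation.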

[5] = target: Estrogen receptor beta (Homo sapiens) (UniProt Q92731); assay: qHTS assay to identify small molecule antagonists of the estrogen receptor beta (ER-beta) signaling pathway (AID 1259378; active = well fitted inhibition curve with a large enough effect in the signal ratio in the repeat runs, not every such curve was filed as active; inconclusive = weak or mixed curves, or effect the other way; inactive = no such curve, though single readings can be large or run the other way; the % refers to the signal ratio; also: potency is read from the fitted curve at half-maximal effect); conditions: ER-beta-UAS-bla HEK293T, beta-lactamase FRET ratio, 16 h; activity, negative = inhibition: at 92.4 µM (top of the series) unless noted
How it was run: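 ER-beta-UAS-bla HEK293T cells in 2% charcoal-stripped FBS medium treated with compound plus 1nM final 17-beta-estradiol for 16 hr at 37C. Beta-lactamase reporter read by FRET substrate fluorescence after 2 hours at room temperature.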

[6] = qHTS assay to identify small molecule agonists of the androgen receptor (AR) signaling pathway in the presence of an antagonist - cell viability counter screen (AID 1259379); conditions: MDA-kb2 viability, CellTiter-Fluor, 16 h; series mostly up to 92.4 µM; also: potency is read from the fitted curve at half-maximal effect; nearly all actives have a fitted effect of over 25% in size
How it was run: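 MDA-kb2 viability measured by CellTiter-Fluor fluorescence in the same wells as the luciferase signal; nilutamide 3.0uM final; 15-point compound titration; 16 hr at 37C.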

[7] = A CellTox Green Cytotoxicity Assay to monitor cytotoxicity in HEK293 cells - 16 hour (AID 1224888); conditions: CellTox Green fluorescence; series mostly up to 76.8 µM; also: nearly all actives have a fitted effect of over 35% in size; also: potency is read from the fitted curve at half-maximal effect
How it was run: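 Tox21 screen in HEK293: membrane-impermeant cyanine dye fluoresces on binding dead-cell DNA; compound pinned 5 h post-seeding, plates held at 37 C, signal read repeatedly through 40 h.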

[8] = qHTS assay to identify small molecule antagonists of the androgen receptor (AR) signaling pathway using the MDA cell line in the presence of 0.5 nM R1881 - cell viability counter screen (AID 1259242); conditions: MDA-kb2 viability, CellTiter-Fluor protease fluorescence, 16 h; series mostly up to 92.4 µM; also: potency is read from the fitted curve at half-maximal effect; nearly all actives have a fitted effect of over 45% in size
How it was run: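 Concentration-response screen of compounds for toxicity in MDA-kb2 reporter cells: 16 hr at 37C with 0.5 nM R1881, endpoint live-cell protease fluorescence measured in the reporter wells.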

[9] = qHTS assay to identify small molecule phospholipidosis (PLD) inducers (AID 1259344; active = well fitted curve in the direction sought with a large enough effect; inconclusive = small, poorly fitted or top-dose-only effect, or another doubt; inactive = no such curve, though single readings can be large; an effect the other way counts as inactive or inconclusive; also: potency is read from the fitted curve at half-maximal effect); conditions: HepG2 phospholipidosis, LipidTOX Red imaging, 24 h; series mostly up to 38.3 µM
How it was run: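 Read-out is LipidTOX Red fluorescence (ex 595/em 615) imaged in HepG2 cells after 24 h compound exposure at 37 C, with Hoechst nuclear counterstain (ex 352/em 461) allowing per-cell normalisation.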

[10] = qHTS assay to identify small molecule antagonists of the sonic hedgehog signaling (Shh) pathway - cell viability counter screen (AID 1259367); conditions: NIH/3T3 Gli1-Luc viability, CellTiter-Fluor, 24 h; series mostly up to 92.4 µM; also: potency is read from the fitted curve at half-maximal effect; nearly all actives have a fitted effect of over 55% in size
How it was run: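 Fluorescence read-out (CellTiter-Fluor, 1 hr at 37C) taken after 23 hr compound treatment of 3T3 Gli1-Luc cells stimulated with conditioned medium. Cells were seeded at 2,000 per well and pre-incubated 4 hr.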

[11] = qHTS assay to identify small molecule antagonists of the sonic hedgehog signaling (Shh) pathway (AID 1259369; calls by dose curve; also: potency is read from the fitted curve at half-maximal effect; nearly all actives have a fitted effect of over 45% in size); conditions: NIH/3T3 Gli1-Luc reporter, Shh antagonist, luminescence 24 h; series mostly up to 92.4 µM
How it was run: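 NIH/3T3 stable Gli1-Luc clone, 2,000 cells/well, 4hr settle; cpd + conditioned medium 24hr; Luc reagent 30min RT; luminescence.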

[12] = qHTS assay to identify small molecule antagonists of the estrogen receptor alpha (ER-alpha) signaling pathway using the BG1 cell line in the presence of 0.1 nM 17-beta-estradiol - cell viability counter screen (AID 1259241); conditions: VM7Luc4E2 (BG1) viability, CellTiter-Fluor protease, 22 h, 0.1 nM estradiol agonist added; series mostly up to 92.4 µM; also: potency is read from the fitted curve at half-maximal effect; nearly all actives have a fitted effect of over 40% in size
How it was run: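 Following 5 days in phenol red-free medium with charcoal-stripped serum, VM7Luc4E2 cells received test compounds alongside 0.1 nM 17beta-estradiol (final) at 37C for 22 hr. Live cells were then quantified via protease-substrate fluorescence.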

[13] = target: Estrogen receptor beta (Homo sapiens) (UniProt Q92731); assay: qHTS assay to identify small molecule agonists of the estrogen receptor beta (ER-beta) signaling pathway (AID 1259377; active = well fitted activation curve with a large enough effect in the signal ratio in the repeat runs, not every such curve was filed as active; inconclusive = weak or mixed curves, or effect the other way; the % refers to the signal ratio; also: potency is read from the fitted curve at half-maximal effect; as to activation: % is scaled to controls: 0 for no effect and ±100 for the full control effect); conditions: ER-beta-UAS-bla HEK293T, beta-lactamase FRET ratio, 16 h; activation: at 92.4 µM (top of the series) unless noted
How it was run: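 qHTS in ER-beta-UAS-bla HEK293T cells: 6 hr settling, then 16 hr compound at 37C, then LiveBLAzer substrate 2 h at RT before fluorescence reading.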

[14] = A CellTox Green Cytotoxicity Assay to monitor cytotoxicity in HepG2 cells - 8 hour (AID 1224890); conditions: CellTox Green fluorescence; series mostly up to 76.8 µM; also: potency is read from the fitted curve at half-maximal effect; nearly all actives have a fitted effect of over 45% in size
How it was run: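 Measurements at 0, 8, 16, 24, 32 and 40 h of treatment captured CellTox Green fluorescence in HepG2 cells that had been co-plated with reagent and preincubated 5 h at 37 C/5% CO2.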

[15] = qHTS assay to identify small molecule agonists of the sonic hedgehog signaling (Shh) pathway - cell viability counter screen (AID 1259366); conditions: NIH/3T3 Gli1-Luc viability, CellTiter-Fluor, 24 h; series mostly up to 92.4 µM
How it was run: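 Compounds in DMSO were pin-transferred onto 3T3 Gli1-Luc cells that had settled 4hr; plates then stood 24hr at 37C and 5% CO2. One hour before the end, CellTiter-Fluor was added and fluorescence recorded.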

[16] = qHTS assay to identify small molecule agonists of the sonic hedgehog signaling (Shh) pathway (AID 1259368; calls by dose curve;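 also: NIH/3T3-derived 3T3Gli1-Luc cells carrying a stable Gli1-driven firefly luciferase reporter; % is scaled to controls: 0 for no effect and ±100 for the full control effect; nearly all actives have a fitted effect of over 15% in size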); conditions: NIH/3T3 Gli1-Luc reporter, luciferase, 24 h; series mostly up to 92.4 µM
How it was run: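 Hedgehog pathway agonism scored by increased firefly luciferase luminescence in 3T3Gli1-Luc cells treated 24 hr at 37 C; detection used a 30 min room-temperature reagent incubation.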

[17] = target: Estrogen receptor (Homo sapiens) (UniProt P03372); assay: qHTS assay to identify small molecule antagonists of the estrogen receptor alpha (ER-alpha) signaling pathway using the BG1 cell line in the presence of 0.1 nM 17-beta-estradiol (AID 1259244); conditions: VM7Luc4E2 (BG1) ERE-luciferase, antagonist mode, 0.1 nM E2, 22 h; series mostly up to 92.4 µM
How it was run: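 Compounds were tested against 0.1 nM (final) 17beta-estradiol in VM7Luc4E2 cells, which express full-length ER-alpha and an ERE-luciferase reporter; luminescence was recorded following 22 h exposure.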
Tags tell the direction and shape of the fitted curve or compound fluorescence and quenching.

UniProt Q92731, sequence (Q92731 whole entry, looked up): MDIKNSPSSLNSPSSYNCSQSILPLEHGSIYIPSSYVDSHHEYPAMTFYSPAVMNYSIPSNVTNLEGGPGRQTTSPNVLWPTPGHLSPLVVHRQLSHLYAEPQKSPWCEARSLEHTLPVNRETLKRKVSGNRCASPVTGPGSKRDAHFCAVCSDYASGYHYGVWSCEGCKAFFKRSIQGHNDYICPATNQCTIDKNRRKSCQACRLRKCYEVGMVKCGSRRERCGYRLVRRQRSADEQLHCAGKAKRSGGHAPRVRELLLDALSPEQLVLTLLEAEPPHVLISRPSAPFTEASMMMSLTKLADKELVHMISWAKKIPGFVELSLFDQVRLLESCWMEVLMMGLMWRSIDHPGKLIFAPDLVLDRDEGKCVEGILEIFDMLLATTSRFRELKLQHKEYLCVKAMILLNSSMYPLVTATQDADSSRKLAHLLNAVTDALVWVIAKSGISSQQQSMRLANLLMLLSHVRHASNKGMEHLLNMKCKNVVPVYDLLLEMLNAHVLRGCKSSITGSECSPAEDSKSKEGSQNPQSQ
UniProt P03372, sequence (P03372 whole entry, looked up): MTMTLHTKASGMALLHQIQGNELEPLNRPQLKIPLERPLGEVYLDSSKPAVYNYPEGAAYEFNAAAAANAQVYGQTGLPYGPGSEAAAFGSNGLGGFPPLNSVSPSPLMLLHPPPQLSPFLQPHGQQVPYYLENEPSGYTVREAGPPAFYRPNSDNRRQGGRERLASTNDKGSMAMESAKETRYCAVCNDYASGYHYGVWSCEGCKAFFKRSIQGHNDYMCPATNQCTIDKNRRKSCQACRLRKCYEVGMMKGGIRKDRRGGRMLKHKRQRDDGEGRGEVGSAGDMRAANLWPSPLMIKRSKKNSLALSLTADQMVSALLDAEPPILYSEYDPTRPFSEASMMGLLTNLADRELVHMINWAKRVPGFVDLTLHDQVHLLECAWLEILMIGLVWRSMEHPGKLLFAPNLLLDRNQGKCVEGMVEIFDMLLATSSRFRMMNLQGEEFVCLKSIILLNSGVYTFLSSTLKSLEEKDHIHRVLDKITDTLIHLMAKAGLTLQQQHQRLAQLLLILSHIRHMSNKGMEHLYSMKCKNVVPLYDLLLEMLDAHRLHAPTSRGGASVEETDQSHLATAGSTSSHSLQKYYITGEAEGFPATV
UniProt P10275, sequence (P10275 whole entry, looked up): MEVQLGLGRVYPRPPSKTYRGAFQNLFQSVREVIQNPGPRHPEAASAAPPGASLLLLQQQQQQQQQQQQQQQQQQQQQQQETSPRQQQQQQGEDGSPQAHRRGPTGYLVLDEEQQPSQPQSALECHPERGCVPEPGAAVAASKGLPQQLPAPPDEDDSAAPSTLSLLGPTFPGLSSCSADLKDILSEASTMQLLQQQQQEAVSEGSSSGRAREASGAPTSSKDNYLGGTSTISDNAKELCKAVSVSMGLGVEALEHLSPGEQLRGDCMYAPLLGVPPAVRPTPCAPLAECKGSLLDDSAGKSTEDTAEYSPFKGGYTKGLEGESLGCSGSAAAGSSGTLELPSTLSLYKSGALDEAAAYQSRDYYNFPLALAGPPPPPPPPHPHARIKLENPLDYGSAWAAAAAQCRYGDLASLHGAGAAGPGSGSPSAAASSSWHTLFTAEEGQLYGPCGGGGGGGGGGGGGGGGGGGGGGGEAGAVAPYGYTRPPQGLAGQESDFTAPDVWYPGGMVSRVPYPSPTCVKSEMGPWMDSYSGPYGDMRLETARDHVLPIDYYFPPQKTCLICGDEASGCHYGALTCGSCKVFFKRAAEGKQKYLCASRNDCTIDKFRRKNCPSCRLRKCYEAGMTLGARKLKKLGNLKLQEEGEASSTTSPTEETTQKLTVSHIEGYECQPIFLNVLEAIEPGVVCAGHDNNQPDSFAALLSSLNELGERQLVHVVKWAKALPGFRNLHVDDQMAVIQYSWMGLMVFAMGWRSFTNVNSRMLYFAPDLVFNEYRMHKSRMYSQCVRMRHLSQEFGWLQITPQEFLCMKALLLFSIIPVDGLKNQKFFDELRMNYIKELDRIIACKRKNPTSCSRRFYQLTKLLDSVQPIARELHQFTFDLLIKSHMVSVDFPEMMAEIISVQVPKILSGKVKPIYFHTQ

## OC(c1ccc(Cl)cc1)(c1ccc(Cl)cc1)c1cccnc1
[1]
  Potency: inconclusive: 24.5 µM [cytotoxic, partial curve]
[2]
  Potency: active: 38.9 µM
[3]
  Potency: inconclusive: 38.9 µM [cytotoxic, partial curve]
[4]
  Potency: active: 27.3 µM
[5]
  Potency: active: 38.6 µM
[6]
  Potency: inconclusive: 77 µM [cytotoxic, single point]

## COc1cccc(C(=O)CCN[C@@H](C)[C@H](O)c2ccccc2)c1
[1]
  Potency: inconclusive: 23.9 µM [cytotoxic, single point]
[2]
  Potency: inconclusive: 30.1 µM [cytotoxic, single point]
[7]
  Potency: inconclusive: 30.1 µM [activator, single point]
[8]
  Potency: inconclusive: 33.5 µM [cytotoxic, single point]
[9]
  Potency: inconclusive: 5.01 µM [activator, single point]
[10]
  Potency: inconclusive: 29.8 µM [cytotoxic, single point]
[11]
  Potency: active: 23.7 µM
[6]
  Potency: inconclusive: 33.5 µM [cytotoxic]

## CN(C)CCO
[1]
  Potency: inactive

## CCCCCCCCCCCCCCCCCCn1cc[n+](C)c1
[1]
  Potency: active: 43.4 µM
[2]
  Potency: active: 15.4 µM
[3]
  Potency: inactive
[7]
  Potency: active: 27.4 µM
[12]
  Potency: inconclusive: 68.2 µM [cytotoxic, single point]
[13]
  activation: inconclusive: -11.5%
[5]
  Potency: inconclusive: 76.5 µM [cytotoxic, single point]

## CC[C@H](C)[C@H]1O[C@]2(C=C[C@@H]1C)C[C@@H]1C[C@@H](C/C=C(\C)[C@@H](O[C@H]3C[C@H](OC)[C@@H](O[C@H]4C[C@H](OC)[C@@H](O)[C@H](C)O4)[C@H](C)O3)[C@@H](C)/C=C/C=C3\CO[C@@H]4[C@H](O)C(C)=C[C@@H](C(=O)O1)[C@]34O)O2
[1]
  Potency: inconclusive: 25.8 µM [cytotoxic, partial curve]
[2]
  Potency: inconclusive: 10.3 µM [cytotoxic, partial curve]
[7]
  Potency: inactive
[14]
  Potency: inconclusive: 32.5 µM [activator, single point]
[15]
  Potency: active: 36.1 µM
[16]
  Potency: inactive

## C(=NC1CCCCC1)=NC1CCCCC1
[1]
  Potency: inconclusive: 15.6 µM [cytotoxic, partial curve] and inconclusive: 12.3 µM [cytotoxic, full curve]
[2]
  Potency: active: 19.6 µM and active: 19.5 µM
[3]
  Potency: inconclusive: 24.7 µM [cytotoxic, partial curve] and inconclusive: 24.5 µM [cytotoxic, partial curve]
[7]
  Potency: inconclusive: 24.7 µM [activator, partial curve] and inconclusive: 43.6 µM [activator, partial curve, poor fit]
[8]
  Potency: inconclusive: 6.11 µM [cytotoxic, full curve]
[17]
  Potency: inconclusive: 27.5 µM [inhibitor, single point]
[15]
  Potency: inconclusive: 69 µM [cytotoxic, single point]
[11]
  Potency: inconclusive: 77.4 µM [inhibitor, single point] and inconclusive: 68.6 µM [inhibitor, single point]

## C[C@H]1CC[C@@H]2[C@@H](C)[C@H]3[C@H](C[C@H]4[C@@H]5CC=C6CC(O[C@@H]7O[C@H](CO)[C@H](O)[C@H](O[C@@H]8O[C@H](CO)[C@@H](O)[C@H](O)[C@H]8O)[C@H]7O[C@H]7O[C@@H](C)[C@H](O)[C@@H](O)[C@H]7O)CC[C@]6(C)[C@H]5CC[C@]34C)N2C1 (stereo not given in full)
[1]
  Potency: active: 50.6 µM
[2]
  Potency: active: 12.7 µM
[3]
  Potency: active: 8.99 µM
[8]
  Potency: active: 25.1 µM
[6]
  Potency: active: 22.4 µM

## ClC1=C(Cl)[C@]2(Cl)[C@@H]3[C@@H](Cl)[C@H]4O[C@H]4[C@@H]3C1(Cl)C2(Cl)Cl
[1]
  Potency: inconclusive: 54.9 µM [cytotoxic, single point]
[2]
  Potency: inconclusive: 61.6 µM [cytotoxic, single point]
[3]
  Potency: inconclusive: 61.6 µM [cytotoxic, single point]
[7]
  Potency: inconclusive: 54.9 µM [activator, single point]
[14]
  Potency: inconclusive: 54.9 µM [activator, single point]
[17]
  Potency: inconclusive: 77 µM [inhibitor, single point]

## CCC[CH2][Sn]([Cl])([Cl])[CH2]CCC
[1]
  Potency: active: 701 nM and active: 616 nM
[2]
  Potency: active: 111 nM and active: 138 nM
[3]
  Potency: active: 111 nM and inconclusive: 389 nM [cytotoxic, full curve]
[7]
  Potency: active: 786 nM and active: 24.5 µM
[12]
  Potency: active: 1.74 µM and active: 2.43 µM
[11]
  Potency: active: 196 nM and active: 243 nM
[13]
  Potency: inconclusive: 38.6 µM [falling, partial curve, poor fit]
[6]
  Potency: active: 552 nM and active: 1.09 µM
